The list shows a part of the results.

The target in this assay is T1, OsWOX13 (Oryza sativa, UniProt Q5QMM3 1-267).
T1 sequence: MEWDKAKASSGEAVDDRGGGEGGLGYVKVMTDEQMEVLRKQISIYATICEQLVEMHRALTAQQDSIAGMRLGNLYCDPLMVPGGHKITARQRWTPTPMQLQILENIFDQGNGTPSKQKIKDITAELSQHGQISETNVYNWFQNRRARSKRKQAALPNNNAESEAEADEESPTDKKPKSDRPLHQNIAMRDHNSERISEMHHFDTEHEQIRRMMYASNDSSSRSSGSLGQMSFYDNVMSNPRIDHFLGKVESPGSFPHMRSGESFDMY
Kind of assay: protein-binding microarray (RPBM); PBS, 2% BSA, 51.3 ng/ul salmon testes DNA, 50 uM zinc acetate, 200 nM TF, 25 C, 1 h; high values mean tight binding. The conditions noted are these: protein: recombinant; tags: N-terminal polyhistidine and DsRed monomer fusion (pET32a); label: CyDye5-dUTP incorporated in the synthesized complementary strand; 3' TTTTT single-stranded linker to array surface; dsDNA, one strand shown. The gist of the method: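 A custom Agilent array was converted to double-stranded form by primer extension with Cy5-dUTP and blocked with 2% BSA. Protein at 200 nM in PBS with 2% BSA, salmon testes DNA and 50 µM zinc acetate was applied for 1 h at 25 °C, followed by washing. The proteins were polyhistidine–DsRed N-terminal fusions of transcription factors, expressed in E. coli BL21-CodonPlus and Ni–NTA-purified. The binding signal is per-feature fluorescence intensity (arbitrary units) from an Axon 4000B scanner.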
“AACTAGATATTTAATTAATGGTATCGTAATCAAACCGATCCGGAGTCACCTAGTGCAG”: the binding signal was 6080 fluorescence intensity (a.u.).
As to “AATCAATTATAACCATTTTCTATTTAATTACCTCACGCACCGGAGTCACCTAGTGCAG”, the binding signal was 25700 fluorescence intensity (a.u.).
As for “AATAAATAATTAATACTTAATTAATATGCAATAATATGCACGGAGTCACCTAGTGCAG”, the figure is 38600 fluorescence intensity (a.u.).
As for “TATTTGCCTATCCCTATCAATTATCATGTTTAAATTTTCACGGAGTCACCTAGTGCAG”, the figure is 5720 fluorescence intensity (a.u.).
As for “CGAAATTGGGCAGAACAGTAGATTTCTCTCGTAAATAAGTCGGAGTCACCTAGTGCAG”, the figure is 6810 fluorescence intensity (a.u.); as for “TTTTGGAATTGATACTCGATATTTCTGCCAAGGAGAGGCTCGGAGTCACCTAGTGCAG”, 7220 fluorescence intensity (a.u.); as for “ATTTTGATTTGCTCTCGGCTCTCTCGTTCGTGTGCACATCCGGAGTCACCTAGTGCAG”, 26200 fluorescence intensity (a.u.).
“TGAAAATTTTGTCGGAAATTTATCAGTGTATCAACTGTCTCGGAGTCACCTAGTGCAG”: the binding signal is 6470 fluorescence intensity (a.u.).
As for “AGTATAATTATGTTTAGAATGGATTAATTGTAATGTAAAGCGGAGTCACCTAGTGCAG”, the figure is 38600 fluorescence intensity (a.u.); as for “ATTAATTAATTAATTAATTAATACAAGTTGGCAACAGCAGCGGAGTCACCTAGTGCAG”, 43300 fluorescence intensity (a.u.); as for “CTATATCTTGATGCTTTGTTGATTAGTACCATGGATTGGCCGGAGTCACCTAGTGCAG”, 6900 fluorescence intensity (a.u.).
As for “CTAGCTAATTAAGCCAGAATAATGTCATCTTATTCTCAAACGGAGTCACCTAGTGCAG”, the figure is 11200 fluorescence intensity (a.u.); as for “TACGTGATTGAAAGAAATGTTTAATAAACAAATGATGTGACGGAGTCACCTAGTGCAG”, 18000 fluorescence intensity (a.u.); as for “CGTGATTTCAAGGTGATTCAAAATCAGATTTCGAGAAATTCGGAGTCACCTAGTGCAG”, 12200 fluorescence intensity (a.u.).
For the sequence “ATGAGTACTAATTTTGATTTACGTCGTTAACGTTTTGAAACGGAGTCACCTAGTGCAG”, the binding signal is 12000 fluorescence intensity (a.u.).
As for “AGGTTCCACATCACGATGCCAATCATAGTAGCCAAATCAACGGAGTCACCTAGTGCAG”, the figure is 3610 fluorescence intensity (a.u.); as for “TTTAAACAAGATCAATTTAACTTATAAACATTTGGGAGTGCGGAGTCACCTAGTGCAG”, 6550 fluorescence intensity (a.u.).
For “CATTGGAATTGATGATCACATTATACATGGATTTGACCCACGGAGTCACCTAGTGCAG”, the binding signal is 30600 fluorescence intensity (a.u.).
Regarding “TTCGCTATTGGTTGATTTGTTAATTTAGCGGGGTCATTAGCGGAGTCACCTAGTGCAG”, the binding signal is 9460 fluorescence intensity (a.u.).
As for “GAATGATTGAGAGAGCTGTTTAGATTATAACCAAAATAAACGGAGTCACCTAGTGCAG”, the figure is 15600 fluorescence intensity (a.u.).
As for “GTAAAATATATTATTGTGATTAGAATGGCACCAACAATATCGGAGTCACCTAGTGCAG”, the figure is 14600 fluorescence intensity (a.u.); as for “TTCTACACAACGATAATTGGCTGTGCAGCCTGGCGTATAACGGAGTCACCTAGTGCAG”, 11500 fluorescence intensity (a.u.).
As for “TTTAAATGATGTATTCTGCAGTGGGTTCAGTGTGACAAGTCGGAGTCACCTAGTGCAG”, the figure is 6530 fluorescence intensity (a.u.).
For the sequence “TATATATATATATATATATATATAAGTGAATTTTCATAGTCGGAGTCACCTAGTGCAG”, the binding signal is 3180 fluorescence intensity (a.u.).
As for “AACACGTAAATTTATAGTACGATGATACCGTACGAGATTGCGGAGTCACCTAGTGCAG”, the figure is 5600 fluorescence intensity (a.u.).
As for “AGGCCGTCCTTAGTCAATCAAGACCGTCCATTCTCCCGAACGGAGTCACCTAGTGCAG”, the figure is 6830 fluorescence intensity (a.u.).
As for “CATATCCTAATTGGCTAGTAGTATGGATTTAGACAGACAACGGAGTCACCTAGTGCAG”, the figure is 26500 fluorescence intensity (a.u.).
As to “GAGATTAGCTAACAAAATGTGTATATCCCCATGAGATTGGCGGAGTCACCTAGTGCAG”, the binding signal is 5740 fluorescence intensity (a.u.).
As for “ATTCAAAGGTTAATTGGATCATACCATTGCAAAATTACCGCGGAGTCACCTAGTGCAG”, the figure is 6760 fluorescence intensity (a.u.); as for “ACCTACTAATAACTAGTTAATTGTCTATTGTGCCCCTAGTCGGAGTCACCTAGTGCAG”, 21700 fluorescence intensity (a.u.).
As for “ACTATTTTATTTCCCATTGACAGATTATACAGTGACATGCCGGAGTCACCTAGTGCAG”, the figure is 9790 fluorescence intensity (a.u.).
As for “TTTAATTGGACATTTATTCTGTCATGATATTTTGAATATTCGGAGTCACCTAGTGCAG”, the figure is 44300 fluorescence intensity (a.u.).
“AATAAATTTATATAGAAAATAATCTAAACGATTTATAATACGGAGTCACCTAGTGCAG”: the binding signal is 3680 fluorescence intensity (a.u.).
As for “ATGCGATTGACTAATTAATTGACTGGGCTTTGGCATTGGGCGGAGTCACCTAGTGCAG”, the figure is 65500 fluorescence intensity (a.u.).
As for “ATAAATTTATATTTGAAAACTTTTAACTTAGATTTGAAAACGGAGTCACCTAGTGCAG”, the figure is 17100 fluorescence intensity (a.u.); as for “TGCGGTGATTTGAACCTTGCTGCTGTGATTTCAGTTTGGTCGGAGTCACCTAGTGCAG”, 19200 fluorescence intensity (a.u.); as for “AAAAGCATAATTATACACAGTAATAGGCGTTCAAGATATTCGGAGTCACCTAGTGCAG”, 5610 fluorescence intensity (a.u.).
On to “CGTGTCAACAATGAATAATTTGTTTCTCAAATTAGTCCGACGGAGTCACCTAGTGCAG”, for which the binding signal was 4430 fluorescence intensity (a.u.).
On to “TAAAATTGTCTGTGTTGTTTTGCCGTATAATCGGGATGGCCGGAGTCACCTAGTGCAG”, for which the binding signal is 3220 fluorescence intensity (a.u.).
For “TTAATTTAAGATAGAAAGAAATTGTTCGCTTCACCTAGAACGGAGTCACCTAGTGCAG”, the binding signal is 5410 fluorescence intensity (a.u.).
On to “GAAGATTGATACTATTACAACAAAGGACACAAAATGATTCCGGAGTCACCTAGTGCAG”, for which the binding signal is 33500 fluorescence intensity (a.u.).
As to “TTTAAAATGATAATTTAACGATATATAACAATAGACGGCACGGAGTCACCTAGTGCAG”, the binding signal is 24900 fluorescence intensity (a.u.).

The values above are taken from publication PMC7819943, “Rice protein-binding microarrays: a tool to detect cis-acting elements near promoter regions in rice”.
